Measurements reported in the supplement of paper PMC10338343.
± gives the standard deviation. Only a part is listed here, and it is no random draw.

Tested on: MIWI (PIWIL1) piRISC loaded with L1MC piRNA (30 nt)
Assay: pre-steady-state target cleavage rate (min^-1); MIWI and MILI are mouse PIWI proteins and EfPiwi is from a freshwater sponge; tags in brackets are library labels; higher = faster piRNA-guided slicing of the target
Settings: guide: L1MC piRNA 5'p-UAACUAAAUACUAUGCAAGCUGUAGGUCCU
Summary of the method: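 Cleave-'n-Seq used a transcribed, DNA-blocked target RNA library at 0.1 nM and active affinity-purified piRISC with one synthetic guide at 1 nM, with or without 500 nM GTSF1 partner protein, in HEPES–potassium acetate buffer at 33 °C for 0–8 or 0–960 min. Uncleaved targets were sequenced and normalised to depth and to weakly complementary targets, and three trials were pooled with k3 capped at 0.0001 min^-1. The pre-steady-state cleavage rate was estimated by a burst-and-steady-state fit.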

[1] = auxiliary factor: none (no GTSF1)
[2] = auxiliary factor: 500 nM mouse GTSF1

| Sequence | pre-steady-state target cleavage rate [1] | pre-steady-state target cleavage rate [2] |
| --- | --- | --- |
| UCCUGGAUGUCGAACGAAGUAUUUAGUUA | < 0.0001 | – |
| UCCUGGAUGUCGAACCAUAGAAUAUAGUUA | < 0.0001 | – |
| UCCUGCAACAGCUUGCUUAGUAUUUAGUUA | 0.0478 ± 0.013 | – |
| AGCUGCUACAGCUUGCAUAGUAUUUAGUUA | 0.0697 ± 0.012 | – |
| UCCUGGAUGUGCAUGCAUAGUAAUUAGUUA | – | 0.0074 ± 0.0035 |
| UCCUGGAUGUGCUACCAUAGUAUUUAGUUA | – | 0.00465 ± 0.0032 |
| UCCUGCUACAGCUUGCAUAGUAUAAUGAAA | – | 0.331 ± 0.071 |
| UCCUCCUACACGAUGCAUAGUAUUUACAAA | – | 0.17 ± 0.033 |
| UCCACCUACACGUUGCAUAGUAUUUAGAAA | – | 0.306 ± 0.032 |
| UCCUGGAUGUCGAACGAUAGUAUUUAGUUUA | – | < 0.0001 |
| UCCUGCUACACGAUGCAUAGUAUUUUCAAA | – | 0.107 ± 0.026 |
| AGGACCUACAGCUUGCAUAGUUAAAUCAAA [g10:g30:cont:t1A] | – | 0.159 ± 0.046 |
| UCCUGCUACAGGUUGCAUAGUAUUUUCAAA | – | 0.0858 ± 0.019 |
| UCCUGGAUGUCGAUGCAUAGUAUCUAGUUA | – | 0.00955 ± 0.0041 |
| UCCUGGAUGUCGAACCAUACUAUUUAGAUA | < 0.0001 | – |
| UCCUGGAUGUGCUUGCAUACAAUUUAGUUA | – | 0.0043 ± 0.0036 |
| UCCUGGAUGUGCAUGCAUACUAUUUAGUUA | – | 0.0114 ± 0.0043 |
| UCCUCCUACAGCUUGCAUAGUAUUAGUUA | – | 0.181 ± 0.034 |
| UCCACCUACAGCAUGCAUAGUAUUUUCAAA | – | 0.261 ± 0.034 |
| UCCUGGUACAGCUUGCAUAGUAUUUGUUA | – | 0.182 ± 0.035 |
| UCCUCCUACAGCUUGCAAUAGUAUUUAGUUA | – | 0.0962 ± 0.021 |
| UGGACCUACAGCAAGCAUAGUAUUUACAAA | – | 0.273 ± 0.051 |
| UCCUCCUACAGCUUGCAUAGUAUUAUCAAA [g7:g26:cont:t1A] | – | 0.321 ± 0.041 |
